{"source": "the supplement of paper PMC8728848", "binders": {"B1": {"name": "Clec2 (Mus musculus), Q9JL99 (protein)", "chain": "MQDEDGYITLNIKPRKQALSSAEPASSWWRVMALVLLISSMGLVVGLVALGIMSVTQQKYLLAEKENLSATLQQLAKKFCQELIRQSEIKTKSTFEHKCSPCATKWRYHGDSCYGFFRRNLTWEESKQYCTEQNATLVKTASQSTLDYIAERITSVRWIGLSRQNSKKDWMWEDSSVLRKNGINLSGNTEENMNCAYLHNGKIHPASCKERHYLICERNAGMTRVDQLL"}}, "assay_in_all_cases": "glycan array binding signal (z-score within array); higher = stronger binding", "settings_in_all_cases": "glycan notation: IUPAC condensed, linker removed", "key": {"[1]": {"target": "Fuc(a1-2)[GalNAc(b1-3)]Gal", "method_in_brief": "(§1)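 The binding signal is a Z-score computed within each array. Data were drawn from 3228 arrays in the Consortium for Functional Glycomics database, restricted to those with a known protein sequence. Scores were averaged over arrays of the same protein sequence at different concentrations or buffers, and over linkers, and negative values can be taken as non-binding.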"}, "Fuc(a1-3)GlcNAc": {"target": "Fuc(a1-3)GlcNAc", "method_in_brief": "as §1"}, "[2]": {"target": "Fuc(a1-3)[Gal(b1-4)]Glc6S", "method_in_brief": "as §1"}, "[3]": {"target": "Fuc(a1-3)[Gal(b1-4)]GlcNAc", "method_in_brief": "as §1"}, "[4]": {"target": "Fuc(a1-3)[Gal(b1-4)]GlcNAc(b1-2)Man", "method_in_brief": "as §1"}, "[5]": {"target": "Fuc(a1-3)[Gal(b1-4)]GlcNAc(b1-2)Man(a1-3)[Fuc(a1-3)[Gal(b1-4)]GlcNAc(b1-2)Man(a1-6)]Man(b1-4)GlcNAc(b1-4)GlcNAc", "method_in_brief": "as §1"}, "[6]": {"target": "Fuc(a1-3)[Gal(b1-4)]GlcNAc(b1-2)Man(a1-3)[Fuc(a1-3)[Gal(b1-4)]GlcNAc(b1-2)Man(a1-6)]Man(b1-4)GlcNAc(b1-4)[Fuc(a1-6)]GlcNAc", "method_in_brief": "as §1"}, "[7]": {"target": "Fuc(a1-3)[Gal(b1-4)]GlcNAc(b1-3)Gal(b1-3)[Fuc(a1-4)]GlcNAc", "method_in_brief": "as §1"}, "[8]": {"target": "Fuc(a1-3)[Gal(b1-4)]GlcNAc(b1-3)Gal(b1-4)[Fuc(a1-3)]GlcNAc", "method_in_brief": "as §1"}, "[9]": {"target": "Fuc(a1-3)[Gal(b1-4)]GlcNAc(b1-3)Gal(b1-4)[Fuc(a1-3)]GlcNAc(b1-3)Gal(b1-4)[Fuc(a1-3)]GlcNAc", "method_in_brief": "as §1"}, "[10]": {"target": "Fuc(a1-3)[Gal(b1-4)]GlcNAc(b1-3)GalNAc", "method_in_brief": "as §1"}, "[11]": {"target": "Fuc(a1-3)[Gal(b1-4)]GlcNAc(b1-6)GalNAc", "method_in_brief": "as §1"}, "[12]": {"target": "Fuc(a1-3)[Gal(b1-4)]GlcNAc(b1-6)[Gal(b1-3)GlcNAc(b1-3)]Gal(b1-4)Glc", "method_in_brief": "as §1"}, "[13]": {"target": "Fuc(a1-3)[Gal(b1-4)]GlcNAc6S", "method_in_brief": "as §1"}, "[14]": {"target": "Fuc(a1-3)[Gal3S(b1-4)]Glc", "method_in_brief": "as §1"}, "[15]": {"target": "Fuc(a1-3)[Gal3S(b1-4)]GlcNAc", "method_in_brief": "as §1"}, "[16]": {"target": "Fuc(a1-3)[Gal3S(b1-4)]GlcNAc6S", "method_in_brief": "as §1"}, "[17]": {"target": "Fuc(a1-3)[GalNAc(b1-4)]GlcNAc", "method_in_brief": "as §1"}, "[18]": {"target": "Fuc(a1-3)[GalNAc(b1-4)]GlcNAc6S", "method_in_brief": "as §1"}, "Fuc(a1-4)GlcNAc": {"target": "Fuc(a1-4)GlcNAc", "method_in_brief": "as §1"}, "Fuc(b1-3)GlcNAc": {"target": "Fuc(b1-3)GlcNAc", "method_in_brief": "as §1"}, "Gal(a1-2)Gal": {"target": "Gal(a1-2)Gal", "method_in_brief": "as §1"}, "Gal(a1-3)Gal": {"target": "Gal(a1-3)Gal", "method_in_brief": "as §1"}, "Gal(a1-3)Gal(b1-3)GlcNAc": {"target": "Gal(a1-3)Gal(b1-3)GlcNAc", "method_in_brief": "as §1"}, "[19]": {"target": "Gal(a1-3)Gal(b1-3)GlcNAc(b1-2)Man", "method_in_brief": "as §1"}, "[20]": {"target": "Gal(a1-3)Gal(b1-3)GlcNAc(b1-2)Man(a1-3)[Gal(a1-3)Gal(b1-3)GlcNAc(b1-2)Man(a1-6)]Man(b1-4)GlcNAc(b1-4)GlcNAc", "method_in_brief": "as §1"}, "[21]": {"target": "Gal(a1-3)Gal(b1-3)GlcNAc(b1-3)GalNAc", "method_in_brief": "as §1"}, "[22]": {"target": "Gal(a1-3)Gal(b1-3)GlcNAc(b1-6)GalNAc", "method_in_brief": "as §1"}, "[23]": {"target": "Gal(a1-3)Gal(b1-3)[Fuc(a1-4)]GlcNAc(b1-2)Man(a1-3)[Gal(a1-3)Gal(b1-3)[Fuc(a1-4)]GlcNAc(b1-2)Man(a1-6)]Man(b1-4)GlcNAc(b1-4)GlcNAc", "method_in_brief": "as §1"}, "Gal(a1-3)Gal(b1-4)Glc": {"target": "Gal(a1-3)Gal(b1-4)Glc", "method_in_brief": "as §1"}, "Gal(a1-3)Gal(b1-4)GlcNAc": {"target": "Gal(a1-3)Gal(b1-4)GlcNAc", "method_in_brief": "as §1"}, "[24]": {"target": "Gal(a1-3)Gal(b1-4)GlcNAc(b1-2)Man", "method_in_brief": "as §1"}, "[25]": {"target": "Gal(a1-3)Gal(b1-4)GlcNAc(b1-2)Man(a1-3)[Gal(a1-3)Gal(b1-4)GlcNAc(b1-2)Man(a1-6)]Man(b1-4)GlcNAc(b1-4)GlcNAc", "method_in_brief": "as §1"}, "[26]": {"target": "Gal(a1-3)Gal(b1-4)GlcNAc(b1-3)GalNAc", "method_in_brief": "as §1"}, "[27]": {"target": "Gal(a1-3)Gal(b1-4)GlcNAc(b1-6)GalNAc", "method_in_brief": "as §1"}, "[28]": {"target": "Gal(a1-3)Gal(b1-4)[Fuc(a1-3)]GlcNAc", "method_in_brief": "as §1"}, "[29]": {"target": "Gal(a1-3)Gal(b1-4)[Fuc(a1-3)]GlcNAc(b1-2)Man(a1-3)[Gal(a1-3)Gal(b1-4)[Fuc(a1-3)]GlcNAc(b1-2)Man(a1-6)]Man(b1-4)GlcNAc(b1-4)GlcNAc", "method_in_brief": "as §1"}, "Gal(a1-3)GalNAc": {"target": "Gal(a1-3)GalNAc", "method_in_brief": "as §1"}, "[30]": {"target": "Gal(a1-3)[Gal(a1-4)]Gal(b1-4)GlcNAc", "method_in_brief": "as §1"}, "[31]": {"target": "Gal(a1-4)Gal(b1-3)GlcNAc(b1-2)Man(a1-3)[Gal(a1-4)Gal(b1-3)GlcNAc(b1-2)Man(a1-6)]Man(b1-4)GlcNAc(b1-4)GlcNAc", "method_in_brief": "as §1"}, "Gal(a1-4)Gal(b1-4)Glc": {"target": "Gal(a1-4)Gal(b1-4)Glc", "method_in_brief": "as §1"}, "Gal(a1-4)Gal(b1-4)GlcNAc": {"target": "Gal(a1-4)Gal(b1-4)GlcNAc", "method_in_brief": "as §1"}, "[32]": {"target": "Gal(a1-4)Gal(b1-4)GlcNAc(b1-2)Man(a1-3)[Gal(a1-4)Gal(b1-4)GlcNAc(b1-2)Man(a1-6)]Man(b1-4)GlcNAc(b1-4)GlcNAc", "method_in_brief": "as §1"}, "[33]": {"target": "Gal(a1-4)Gal(b1-4)GlcNAc(b1-3)Gal(b1-4)Glc", "method_in_brief": "as §1"}, "Gal(a1-4)GlcNAc": {"target": "Gal(a1-4)GlcNAc", "method_in_brief": "as §1"}}, "note": "This is one part of the list."}
{"binder": "B1", "values": [{"measurement": "glycan array binding signal (z-score)", "setting": "[1]", "result": -0.246}, {"measurement": "glycan array binding signal (z-score)", "setting": "Fuc(a1-3)GlcNAc", "result": -0.682}, {"measurement": "glycan array binding signal (z-score)", "setting": "[2]", "result": 0.892}, {"measurement": "glycan array binding signal (z-score)", "setting": "[3]", "result": 0.172}, {"measurement": "glycan array binding signal (z-score)", "setting": "[4]", "result": 0.349}, {"measurement": "glycan array binding signal (z-score)", "setting": "[5]", "result": -0.308}, {"measurement": "glycan array binding signal (z-score)", "setting": "[6]", "result": 0.795}, {"measurement": "glycan array binding signal (z-score)", "setting": "[7]", "result": -0.589}, {"measurement": "glycan array binding signal (z-score)", "setting": "[8]", "result": -0.149}, {"measurement": "glycan array binding signal (z-score)", "setting": "[9]", "result": -0.451}, {"measurement": "glycan array binding signal (z-score)", "setting": "[10]", "result": -0.696}, {"measurement": "glycan array binding signal (z-score)", "setting": "[11]", "result": -0.127}, {"measurement": "glycan array binding signal (z-score)", "setting": "[12]", "result": -0.608}, {"measurement": "glycan array binding signal (z-score)", "setting": "[13]", "result": 0.099}, {"measurement": "glycan array binding signal (z-score)", "setting": "[14]", "result": 0.087}, {"measurement": "glycan array binding signal (z-score)", "setting": "[15]", "result": -0.052}, {"measurement": "glycan array binding signal (z-score)", "setting": "[16]", "result": 0.55}, {"measurement": "glycan array binding signal (z-score)", "setting": "[17]", "result": 0.081}, {"measurement": "glycan array binding signal (z-score)", "setting": "[18]", "result": 0.036}, {"measurement": "glycan array binding signal (z-score)", "setting": "Fuc(a1-4)GlcNAc", "result": -0.225}, {"measurement": "glycan array binding signal (z-score)", "setting": "Fuc(b1-3)GlcNAc", "result": -0.556}, {"measurement": "glycan array binding signal (z-score)", "setting": "Gal(a1-2)Gal", "result": 0.521}, {"measurement": "glycan array binding signal (z-score)", "setting": "Gal(a1-3)Gal", "result": -0.512}, {"measurement": "glycan array binding signal (z-score)", "setting": "Gal(a1-3)Gal(b1-3)GlcNAc", "result": 3}, {"measurement": "glycan array binding signal (z-score)", "setting": "[19]", "result": -0.462}, {"measurement": "glycan array binding signal (z-score)", "setting": "[20]", "result": 0.091}, {"measurement": "glycan array binding signal (z-score)", "setting": "[21]", "result": -0.551}, {"measurement": "glycan array binding signal (z-score)", "setting": "[22]", "result": -0.445}, {"measurement": "glycan array binding signal (z-score)", "setting": "[23]", "result": 0.044}, {"measurement": "glycan array binding signal (z-score)", "setting": "Gal(a1-3)Gal(b1-4)Glc", "result": -0.277}, {"measurement": "glycan array binding signal (z-score)", "setting": "Gal(a1-3)Gal(b1-4)GlcNAc", "result": -0.198}, {"measurement": "glycan array binding signal (z-score)", "setting": "[24]", "result": -0.525}, {"measurement": "glycan array binding signal (z-score)", "setting": "[25]", "result": -0.316}, {"measurement": "glycan array binding signal (z-score)", "setting": "[26]", "result": -0.779}, {"measurement": "glycan array binding signal (z-score)", "setting": "[27]", "result": -0.587}, {"measurement": "glycan array binding signal (z-score)", "setting": "[28]", "result": -0.15}, {"measurement": "glycan array binding signal (z-score)", "setting": "[29]", "result": 6.06}, {"measurement": "glycan array binding signal (z-score)", "setting": "Gal(a1-3)GalNAc", "result": -0.242}, {"measurement": "glycan array binding signal (z-score)", "setting": "[30]", "result": 0.641}, {"measurement": "glycan array binding signal (z-score)", "setting": "[31]", "result": 0.756}, {"measurement": "glycan array binding signal (z-score)", "setting": "Gal(a1-4)Gal(b1-4)Glc", "result": 0.329}, {"measurement": "glycan array binding signal (z-score)", "setting": "Gal(a1-4)Gal(b1-4)GlcNAc", "result": 0.275}, {"measurement": "glycan array binding signal (z-score)", "setting": "[32]", "result": -0.282}, {"measurement": "glycan array binding signal (z-score)", "setting": "[33]", "result": -0.892}, {"measurement": "glycan array binding signal (z-score)", "setting": "Gal(a1-4)GlcNAc", "result": 0.562}]}
